Patent US20250389714A1 (SEOUL NATIONAL UNIVERSITY R AND DB FOUNDATION, published 2025)

Biological target: T1, tau oligomers of 6xHis tagged human 0N4R tau (size class not specified) (human, UniProt P10636-6 1-383, biotinylated or labelled with DyLight 488/594 NHS ester, depending on the assay; sites not stated)
T1 construct: also called oTau; biotin-tau oligomers; not shown: 6xHis tag from the pET-His vector
Experiment: cell binding assay: 500 nM biotin-tau oligomers for 2 h on SH-SY5Y cells transfected with RFP or RAGE-RFP, streptavidin-alkaline phosphatase, BCIP/NBT staining

- binding result: binds
B1: G82S RAGE (RFP-tagged), overexpressed in SH-SY5Y cells (receptor, human)
chain: [about 300 residues left out here]LALGILGGLGTAALLIGVILWQRRQRRGEERKAPENQEEEEERAELNQSEEPEAGESSTGGP
notes: whole, on cells; also called RAGE G82S polymorphism; not shown: RFP tag from vector pRFP-N1
